Assay results published in PubChem BioAssay AID1347073 (National Center for Advancing Translational Sciences (NCATS), 2019).
About 200 (0.44%) of roughly 45,000 compounds were called active. Another 7% or so got no clear call; they are omitted. Calls follow the shape of the dose curve; as a rule, active = well fitted activation curve with a large enough effect; inconclusive = small, poorly fitted or top-dose-only effect; inactive = no such curve, though single readings can be large or run the other way. The list shows a part of the results.

experiment: qHTS of TDP-43 Inhibitors: NCGC Sytravon Library Screen; conditions: yeast TDP-43 toxicity rescue, BacTiter-Glo growth, 24 h; series mostly up to 46.1 µM; growth rescue (activation): at the top concentration; also: 0% is about no effect; nearly all actives have a fitted effect of over 55% in size
Outline: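 TDP-43-expressing yeast, pregrown in raffinose, seeded at OD600 0.02 in galactose medium with compound for 24 hr at 30 deg C. Growth read by BacTiter-Glo luminescence, so rescue of toxicity appears as activation.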

SMILES | growth rescue (activation)
Cc1c(N2C(=O)/C(=C\c3ccc(N(C)C)cc3)N(C)C2=S)c(=O)n(-c2ccccc2)n1C | inactive: -1.6%
C=CCn1c(O)c(N=Nc2ccccc2)c2ccccc21 | inactive: -7.32%
O=C(CSc1nnc2ccccn12)NC(=O)NC1CCCCC1 | inactive: 8.69%
COc1ccc(NC(=O)COC(=O)[C@@H]2CCCN2S(=O)(=O)c2ccccc2F)c(OC)c1 | inactive: 16.3%
Cc1ccc(CNC(=O)C2CCCN(c3nnc(-n4c(C)ccc4C)s3)C2)cc1 (configuration not stated) | inactive: 0.134%
CCS(=O)(=O)c1ccccc1C(=O)NC1CCCc2ccccc21 (configuration not stated) | inactive: 4.95%
Cc1nn(C)c(Cl)c1CN1CCN(CC(C)C)C(CCO)C1 (configuration not stated) | inactive: -3.14%
CCSc1nnc(NC(=O)CSc2sc3c(O)cc(=O)[nH]c3c2C#N)s1 | inactive: -1.22%
CCN(Cc1ccccc1)C(=O)CCc1nnc(CCCc2ccccc2)o1 | inactive: 20.2%
O=C(CCn1c2c(c3ccccc31)CCCC2)NNC(=O)c1ccc(Cl)c([N+](=O)[O-])c1 | inactive: 9.27%
O=C(c1cn(-c2ccccc2)nc1-c1cc2ccccc2oc1=O)N1CCOCC1 | inactive: 15.3%
S=c1nc(C2CCCCC2)[nH]c2ccccc12 | inactive: 34.8%
Cc1ccc(N(C(=O)CCCC(=O)Nc2ccccn2)C(C(=O)NC2CCCC2)c2ccc(O)cc2)cc1C (configuration not stated) | inactive: -2.49%
CC(C)(C)NC(=O)NC(=O)CN1CCN(S(=O)(=O)c2ccccc2)CC1 | inactive: 5.14%
O=C(CNC(c1ccccc1)c1ccccc1)Nc1ccccc1F | inactive: -14.3%
COc1cccc(C(=O)/C=C/Nc2ccc(S(=O)(=O)Nc3cnc4ccccc4n3)cc2)c1 | inactive: -7.94%
COc1ccc(CC2S/C(=N/N=C/c3ccc(O)cc3)NC2=O)cc1 (configuration not stated) | inactive: -5.75%
O=c1c2[nH]c3ccc(F)cc3c2nc2n1CCCS2 | inactive: 12.8%
CCOc1ccc(-c2nc(CN(Cc3ccccc3)C[C@@H]3CCC(=O)N3)c(C)o2)cc1 | inactive: 0.472%
O=C(NCCc1ccc(Cl)cc1Cl)c1cc([N+](=O)[O-])c[nH]c1=O | inactive: -5.72%
Cc1ccc(N=C2NC(=O)/C(=C/C=C/c3ccco3)S2)cc1C | inactive: -8.67%
Cc1cc(C(=O)OCC(=O)NCc2ccc3c(c2)OCO3)c2ccccc2n1 | inactive: 4.43%
Cc1cc(F)ccc1S(=O)(=O)Nc1ccc(C(=O)N2CCCCC2)cc1 | inactive: 4.64%

SMILES | growth rescue (activation)
Cc1cccc(NCc2ccc(Br)cc2)n1 | inactive: -6.6%
CCOC(=O)c1c2c3c(cccc3n(C)c1=O)C(=O)c1ccccc1-2 | inactive: 8.33%
Cc1ccccc1CNC(=O)c1ccc2nc([C@@H]3O[C@H](CO)[C@H](O)[C@H](O)[C@H]3O)[nH]c2c1 | inactive: -8.18%
CCCCCCCCc1nc(SCC(C)=O)n[nH]1 | inactive: 17.3%
CC1(C)CC(=O)C2=C(C1)NC(SCC(=O)Nc1ccccc1)=C(C#N)C2c1ccco1 (configuration not stated) | inactive: 19.5%
Cc1cc(=O)oc2c3c(cc(OCC(=O)NC(C)C)c12)OC(C)(C)CC3 | inactive: -12.4%
NS(=O)(=O)c1ccc(CCNC(=O)CN2CCN(c3ccccc3F)CC2)cc1 | inactive: 14.1%
COc1ccc(OC)c(S(=O)(=O)N2CCCC(C(=O)NC3CC3)C2)c1 (configuration not stated) | inactive: -4.21%
COc1cccc(NC(=O)COC(=O)CCSc2ccccc2)c1 | inactive: 13.7%
CCCC(C)(C)C(=O)N1CCC1(C)C(=O)NS(=O)(=O)c1ccc(Cl)cc1 (configuration not stated) | inactive: 0.7%
COc1cc(C)c(NC(=S)Nc2ccc(C)c(Cl)c2)cc1OC | inactive: -1.11%
O=C(CCCn1cnc([N+](=O)[O-])n1)Nc1cc(Cl)ccc1O | inactive: 10.5%
CCOC(=O)C1CCCN(C(=O)c2oc3ccccc3c2C)CC1 (configuration not stated) | inactive: 29.7%
O=C1c2ccc3c4c(ccc(c24)C(=O)N1c1cccc(O)c1)CC3 | inactive: -24.6%
Cc1ccc2nc(N3CCN(c4ccccc4)CC3)c(C=O)c(=O)n2c1 | inactive: -1.07%
O=C(COC(=O)c1ccccn1)Nc1nc(-c2ccccc2)cs1 | inactive: 0.916%
CNc1ccc2nnc(C(F)(F)C(F)(F)C(F)(F)F)n2n1 | inactive: 12.4%
Cc1cc(C)c(C2=Nn3c(C)nnc3SC2C)cc1C (configuration not stated) | inactive: 9.91%
N#CCCN(C(=O)COC(=O)CSc1ccc(Cl)cc1)c1ccccc1 | inactive: 16.6%
CCOC(=O)c1cnn(-c2ncnc3sc(CC)cc23)c1N | inactive: 15.1%
COc1ccc(S(=O)(=O)N2CCN(C(=O)NCc3ccc(C)cc3)CC2)cc1 | inactive: 1.87%
CN(C(=O)COC(=O)CCC(=O)c1ccc(F)cc1)C1CCCCC1 | inactive: 8.77%
COc1ccc(S(=O)(=O)NC(=O)C2(C)CCN2C(=O)c2ccc(C(F)(F)F)nc2C)cc1 (configuration not stated) | inactive: 4.86%

SMILES | growth rescue (activation)
Cc1ccc(N2CC(C(=O)Nc3ccc(S(=O)(=O)Nc4nccs4)cc3)CC2=O)cc1C (configuration not stated) | inactive: -5.36%
O=C(CSc1nnc(NC(=O)c2ccccc2)s1)NC1CCCC1 | inactive: -1.28%
CC(NC(=O)c1ccncc1)c1ccc(Cl)cc1Cl (configuration not stated) | inactive: -2.79%
O=S(=O)(Cc1ccccc1)N1CCN(c2ncccn2)CC1 | inactive: 14%
Cc1ccc(NNC(=O)C(O)(c2cccc(C(F)(F)F)c2)c2cccc(C(F)(F)F)c2)cc1 | inactive: 16%
CCOC(=O)C1C(c2ccccc2O)NC(=O)NC1(O)C(F)(F)F (configuration not stated) | inactive: 10.2%
O=C(COC(=O)c1ccc(Cl)nc1)Nc1ccc(N2CCCCC2)cc1 | inactive: -8.91%
O=C(COc1ccc(Cl)cc1Cl)NCCCNC(=O)c1cnccn1 | inactive: 2.52%
Cc1onc(-c2ccccc2Cl)c1C(=O)Nc1ccccc1O | inactive: -13.4%
Cc1ccccc1NCCC(=O)Nc1ccc(Cl)cc1 | inactive: 15.9%
CC(=O)Nc1ccc2c(COC(=O)CC3Sc4ccccc4NC3=O)cc(=O)oc2c1 (configuration not stated) | inactive: -16%
COCCNC(=O)C(c1ccc(O)cc1)N(C(=O)CCC(=O)Nc1nccs1)c1cccc(C)c1 (configuration not stated) | inactive: 13.4%
O=C(O)c1cccc(NC(=S)N/N=C/c2cccnc2)c1 | inactive: 5.01%
COc1ccc(N(C(=O)c2ccco2)C(C(=O)NC2CCCC2)c2cccs2)c(OC)c1 (configuration not stated) | inactive: 9.26%
COc1cccc(C(=O)N2CCC(O)(c3cccnc3)CC2)c1 | inactive: 4.07%
CN1CCNC(=O)C1CC(=O)NCCc1ccccc1F (configuration not stated) | inactive: 7.62%
CNC(=O)c1cccc2nc3ccccc3nc12 | inactive: 12.5%
C/C(Sc1nnc(Cc2ccccc2)o1)=C(\O)c1ccccc1 | inactive: 2.22%
CN(C(=O)CN1CCN(c2cc(-c3cccc4oc5ccccc5c34)ncn2)CC1)c1ccccc1 | inactive: 2.79%
CC(C)Cn1c(N)c(C(=O)COC(=O)[C@@H]2CCCN2C(=O)c2cccs2)c(=O)n(C)c1=O | inactive: 6.21%
CC(=O)N[C@@H](Cc1c[nH]c2ccccc12)C(=O)OCC(=O)Nc1ccc2c(c1)OCO2 | inactive: 5.27%
